In the experiment the target is T1, human CD3 on the surface of Jurkat cells (human, UniProt P07766; P09693; P04234).
T1 construct: whole, on cells; Endogenous CD3 complex of the Jurkat T cell line; also called cell surface CD3 target on Jurkat cells; CD3-expressing Jurkat cells
The experiment is described as follows: flow cytometry on Jurkat cells, MFI against antibody conc. (nM). The procedure: Different humanized VH and VK combinations led to humanized anti-CD3 variants with different CD3 binding affinities. The binding activity of the humanized variants of mAbCD3-001 were tested via flow cytometry with the human CD3-expressing Jurkat T cell line. 5×10⁵ Jurkat cells in FACS buffer were seeded into each well of a 96-well plate. Cells were centrifuged at 400 g for 5 minutes and supernatants were discarded. For each well, 100 μl of serially diluted antibodies were then added and mixed with the cells. After 40 minutes incubation at 4° C., plates were washed several times to remove excess antibodies. […] After another round of centrifugation and a washing step, cells were resuspended in FACS buffer for reading on a CytoFLEX Flow Cytometer (Beckman Coulter). Median Fluorescence Intensity (MFI) readouts were plotted against antibody concentration and analyzed with GraphPad Prism 5.0 software.

Here are results for 6 molecules from patent US20230002489A1 (SHANGHAI EPIMAB BIOTHERAPEUTICS, published 2023).

T1 sequence (P07766 23-207, chain 1 of 3): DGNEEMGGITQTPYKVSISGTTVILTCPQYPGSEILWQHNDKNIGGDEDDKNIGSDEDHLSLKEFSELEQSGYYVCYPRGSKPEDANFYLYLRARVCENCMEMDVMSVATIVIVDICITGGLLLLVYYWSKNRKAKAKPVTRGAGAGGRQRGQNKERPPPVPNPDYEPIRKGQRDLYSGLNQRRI
T1 sequence (P09693 23-182, chain 2 of 3, further chain): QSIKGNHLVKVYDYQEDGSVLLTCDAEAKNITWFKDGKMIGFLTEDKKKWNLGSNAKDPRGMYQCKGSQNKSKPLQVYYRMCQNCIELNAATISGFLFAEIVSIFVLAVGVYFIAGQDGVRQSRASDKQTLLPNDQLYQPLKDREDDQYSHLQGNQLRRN
T1 sequence (P04234 22-171, chain 3 of 3, further chain): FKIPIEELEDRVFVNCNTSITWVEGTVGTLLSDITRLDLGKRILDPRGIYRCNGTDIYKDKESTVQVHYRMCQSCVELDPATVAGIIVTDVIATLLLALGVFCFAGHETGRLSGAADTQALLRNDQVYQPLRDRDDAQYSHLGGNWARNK

B1: HuEM0006-01-12 (antibody, human IgG1, kappa)
heavy: EVQLVQSGAEVKKPGASVKVSCKASGYTFTNYYVHWVRQAPGQGLEWIGWISPGSDNTKYNEKFKGKATLTADTSISTAYMELSRLRSDDTAVYYCARDDYGNYYFDYWGQGTTVTVSSASTKGPSVFPLAPSSKSTSGGTAALGCLVKDYFPEPVTVSWNSGALTSGVHTFPAVLQSSGLYSLSSVVTVPSSSLGTQTYICNVNHKPSNTKVDKKV[letters of human IgG1 Fc with changes omitted]
light: DIVMSQSPDSLAVSLGERATITCKSSQSLLNSRTRKNYLAWYQQKPGQPPKLLIYWASTRESGVPDRFSGSGSGTDFTLTISSLQAEDVAVYYCKQSYILRTFGGGTKVEIKRTVAAPSVFIFPPSDEQLKSGTASVVCLLNNFYPREAKVQWKVDNALQSGNSQESVTEQDSKDSTYSLSSTLTLSKADYEKHKVYACEVTHQGLSSPVTKSFNRGEC
notes: Humanized variant of mAbCD3-001
For the molecule B1, the binding result is listed as “binds”.

B2: HuEM0006-01-17 (antibody, human IgG1, kappa)
heavy: EVQLVQSGAEVKKPGASVKVSCKASGFSFTNYYVHWMRQAPGQGLEWMGWISPGSDNTKYNEKFKGRVTMTRDTSISTAYMELSRLRSDDTAVYYCARDDYGNYYFDYWGQGTTVTVSSASTKGPSVFPLAPSSKSTSGGTAALGCLVKDYFPEPVTVSWNSGALTSGVHTFPAVLQSSGLYSLSSVVTVPSSSLGTQTYICNVNHKPSNTKVDKKV[letters of human IgG1 Fc with changes omitted]
light: DIVMSQSPDSLAVSLGERATITCKSSQSLLNSRTRKNYLAWYQQKPGQPPKLLIYWASTRESGVPDRFSGSGSGTDFTLTISSLQAEDVAVYYCKQSYILRTFGGGTKVEIKRTVAAPSVFIFPPSDEQLKSGTASVVCLLNNFYPREAKVQWKVDNALQSGNSQESVTEQDSKDSTYSLSSTLTLSKADYEKHKVYACEVTHQGLSSPVTKSFNRGEC
notes: as for B1
As for B2, the binding result was “binds”.

B3: HuEM0006-01-13 (antibody, human IgG1, kappa)
heavy: EVQLVQSGAEVKKPGASVKVSCKASGYTFTNYYVHWMRQAPGQGLEWIGWISPGSDNTKYNEKFKGKATLTADTSISTAYMELSRLRSDDTAVYYCARDDYGNYYFDYWGQGTTVTVSSASTKGPSVFPLAPSSKSTSGGTAALGCLVKDYFPEPVTVSWNSGALTSGVHTFPAVLQSSGLYSLSSVVTVPSSSLGTQTYICNVNHKPSNTKVDKKV[letters of human IgG1 Fc with changes omitted]
light: DIVMSQSPDSLAVSLGERATITCKSSQSLLNSRTRKNYLAWYQQKPGQPPKLLIYWASTRESGVPDRFSGSGSGTDFTLTISSLQAEDVAVYYCKQSYILRTFGGGTKVEIKRTVAAPSVFIFPPSDEQLKSGTASVVCLLNNFYPREAKVQWKVDNALQSGNSQESVTEQDSKDSTYSLSSTLTLSKADYEKHKVYACEVTHQGLSSPVTKSFNRGEC
notes: as for B1
As for B3, the binding result is reported as “binds”.

B4: HuEM0006-01-18 (antibody, human IgG1, kappa)
heavy: EVQLVQSGAEVKKPGASVKVSCKASGFSFTNYYVHWMKQAPGQGLEWIGWISPGSDNTKYNEKFKGKATLTADTSITTAYMELSRLRSDDTAVYYCARDDYGNYYFDYWGQGTTVTVSSASTKGPSVFPLAPSSKSTSGGTAALGCLVKDYFPEPVTVSWNSGALTSGVHTFPAVLQSSGLYSLSSVVTVPSSSLGTQTYICNVNHKPSNTKVDKKV[letters of human IgG1 Fc with changes omitted]
light: DIVMSQSPDSLAVSLGERATITCKSSQSLLNSRTRKNYLAWYQQKPGQPPKLLIYWASTRESGVPDRFSGSGSGTDFTLTISSLQAEDVAVYYCKQSYILRTFGGGTKVEIKRTVAAPSVFIFPPSDEQLKSGTASVVCLLNNFYPREAKVQWKVDNALQSGNSQESVTEQDSKDSTYSLSSTLTLSKADYEKHKVYACEVTHQGLSSPVTKSFNRGEC
notes: as for B1
As for B4, the binding result is given as “binds”.

B5: HuEM0006-01-16 (antibody, human IgG1, kappa)
heavy: EVQLVQSGAEVKKPGASVKVSCKASGFSFTNYYVHWMRQAPGQGLEWIGWISPGSDNTKYNEKFKGRVTLTADTSISTAYMELSRLRSDDTAVYYCARDDYGNYYFDYWGQGTTVTVSSASTKGPSVFPLAPSSKSTSGGTAALGCLVKDYFPEPVTVSWNSGALTSGVHTFPAVLQSSGLYSLSSVVTVPSSSLGTQTYICNVNHKPSNTKVDKKV[letters of human IgG1 Fc with changes omitted]
light: DIVMSQSPDSLAVSLGERATITCKSSQSLLNSRTRKNYLAWYQQKPGQPPKLLIYWASTRESGVPDRFSGSGSGTDFTLTISSLQAEDVAVYYCKQSYILRTFGGGTKVEIKRTVAAPSVFIFPPSDEQLKSGTASVVCLLNNFYPREAKVQWKVDNALQSGNSQESVTEQDSKDSTYSLSSTLTLSKADYEKHKVYACEVTHQGLSSPVTKSFNRGEC
notes: as for B1
B5: the binding result was “binds”.

B6: HuEM0006-01-15 (antibody, human IgG1, kappa)
heavy: EVQLVQSGAEVKKPGASVKVSCKASGFSFTNYYVHWMRQAPGQGLEWIGWISPGSDNTKYNEKFKGKATLTADTSISTAYMELSRLRSDDTAVYYCARDDYGNYYFDYWGQGTTVTVSSASTKGPSVFPLAPSSKSTSGGTAALGCLVKDYFPEPVTVSWNSGALTSGVHTFPAVLQSSGLYSLSSVVTVPSSSLGTQTYICNVNHKPSNTKVDKKV[letters of human IgG1 Fc with changes omitted]
light: DIVMSQSPDSLAVSLGERATITCKSSQSLLNSRTRKNYLAWYQQKPGQPPKLLIYWASTRESGVPDRFSGSGSGTDFTLTISSLQAEDVAVYYCKQSYILRTFGGGTKVEIKRTVAAPSVFIFPPSDEQLKSGTASVVCLLNNFYPREAKVQWKVDNALQSGNSQESVTEQDSKDSTYSLSSTLTLSKADYEKHKVYACEVTHQGLSSPVTKSFNRGEC
notes: as for B1
On to B6, for which the binding result is “binds”.
